The list shows a part of the results. At the low end of the ranking, values are background and their order means little.

The target in the assay is T1, ELK1 (UniProt P19419).
T1 sequence: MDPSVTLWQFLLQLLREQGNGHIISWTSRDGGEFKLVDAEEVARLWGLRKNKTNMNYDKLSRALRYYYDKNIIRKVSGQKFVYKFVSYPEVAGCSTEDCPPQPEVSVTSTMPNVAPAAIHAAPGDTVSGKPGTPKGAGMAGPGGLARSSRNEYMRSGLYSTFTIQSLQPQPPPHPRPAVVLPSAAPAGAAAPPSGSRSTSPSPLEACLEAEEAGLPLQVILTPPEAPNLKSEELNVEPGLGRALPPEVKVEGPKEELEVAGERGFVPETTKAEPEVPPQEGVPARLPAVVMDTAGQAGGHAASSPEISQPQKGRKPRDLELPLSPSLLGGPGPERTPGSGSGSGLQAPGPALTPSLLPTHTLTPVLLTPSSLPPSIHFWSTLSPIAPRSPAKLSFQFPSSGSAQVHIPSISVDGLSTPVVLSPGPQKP
In words: custom PBM. The settings on record: custom protein-binding microarray; buffer, salt, pH and temperature not stated; high values mean tight binding; double strand, one strand shown.
On to “TCCGGCTACCAGCTCCACCCACTACAGGCCTTGTAGGTCTTGATTCGCTTGACGCTGCTG”, for which the binding signal (log fluorescence intensity) turned out to be 8.83.
The figure for “TGTCGGGTAACGGAATGTAGATCACGTGAATGAAAAGTCTTGATTCGCTTGACGCTGCTG” is 8.98.
For the sequence “CGGAAGTGTCTTAAACGTCGGATATCCGGTTCTTCTGTCTTGATTCGCTTGACGCTGCTG”, the binding signal (log fluorescence intensity) turned out to be 12.1.
As for “GGAAAAAGGCCCAGGGTAACACTGGAAGTGGGCTTAGTCTTGATTCGCTTGACGCTGCTG”, the figure is 8.89; as for “GTGTATAGGATCCCATCCAACACACGTATTAAAATGGTCTTGATTCGCTTGACGCTGCTG”, 9.05.
The figure for “GTGTATAGGATCCCATCCAACACACGGGTTAAAATGGTCTTGATTCGCTTGACGCTGCTG” is 8.95; for “CACACTTTTTACAGTAATGTAGCACGCGTAACTCCTGTCTTGATTCGCTTGACGCTGCTG” it is 8.97; for “GTGTATAGGATCCCATTCAACACACGTGTTAAAATGGTCTTGATTCGCTTGACGCTGCTG” it is 8.9.
As to “TGTCGGGTAAGGGAATGTAGATCACGTGAATGAGAAGTCTTGATTCGCTTGACGCTGCTG”, the binding signal (log fluorescence intensity) came out at 8.88.
The figure for “TGTCGGGTAAGGGAATGCAGATCACGTGAATGAAAAGTCTTGATTCGCTTGACGCTGCTG” is 8.89; for “GATTAATTTCTGCCCTTATTCGCACGTGCCATCACAGTCTTGATTCGCTTGACGCTGCTG” it is 8.98.
Turning to “GTCTATAGGATCCCATCCAACACACGTGTTAAAATGGTCTTGATTCGCTTGACGCTGCTG”, the binding signal (log fluorescence intensity) was 8.8.
As for “TAAAGAGAAGACGGTTGTGGTAGTTCCGGGTATTAAGTCTTGATTCGCTTGACGCTGCTG”, the figure is 11; as for “GGGAAAAGGCCCAGGGTAACACCGGAAGTGGGCTTAGTCTTGATTCGCTTGACGCTGCTG”, 11.1; as for “CGGAAGTGTCGTAAACGACGGATATCCGGTTCTTCTGTCTTGATTCGCTTGACGCTGCTG”, 12.7.
The figure for “CGGAAGTGTCGTAAACGTCGCATATCCGGTTCTTCTGTCTTGATTCGCTTGACGCTGCTG” is 11.6; for “GCTGCTGCGGTGCATACCCCACCGGATGTTACCCCGGTCTTGATTCGCTTGACGCTGCTG” it is 10.1; for “GTGTATAGGATCCCATCCAACACACGCGTTAAAATGGTCTTGATTCGCTTGACGCTGCTG” it is 8.94.
The figure for “TAAAGGGAAGACGGTTGTGGTAGTTCCGGGTAGTAAGTCTTGATTCGCTTGACGCTGCTG” is 11.1.
In the case of “GCTGCTGCGGTGGATACCCCACCGGATGTGACCCCGGTCTTGATTCGCTTGACGCTGCTG”, the binding signal (log fluorescence intensity) came to 10.4.
The figure for “CACAATTTTTACAGTAATGTAGCACGAGTAACTCCTGTCTTGATTCGCTTGACGCTGCTG” is 8.79; for “GCTGCTGCGGTGCATACCCCACCGGATTTGACCCCGGTCTTGATTCGCTTGACGCTGCTG” it is 8.88; for “GGAAAAAGGCCCAGGGTAACACCGGAAGTAGGCTTAGTCTTGATTCGCTTGACGCTGCTG” it is 10.7.
As for “TGTCGGGTAAGGGATTGTAGATCACGTGAATGAAAAGTCTTGATTCGCTTGACGCTGCTG”, the figure is 8.83; as for “TGTCGGGTAAGGGAGTGTAGATCACGTGAATGAAAAGTCTTGATTCGCTTGACGCTGCTG”, 8.9; as for “CGGAAGTGTCGTAAACGTCGGATATCCGGTTATTCTGTCTTGATTCGCTTGACGCTGCTG”, 12.5.
As for “CAGCACAGGACTTCTTCCCTGAAGCAATTGATAACCGTCTTGATTCGCTTGACGCTGCTG”, the figure is 8.97; as for “GTGTATAGGATCCCACCCAACACACGTGTTAAAATGGTCTTGATTCGCTTGACGCTGCTG”, 8.85; as for “GCTGCTGCGGCGCATACCCCACCGGATGTGACCCCGGTCTTGATTCGCTTGACGCTGCTG”, 10.2.
Turning to “CGGTAGTGTCGTAAACGTCGGATATCCGGTTCTTCTGTCTTGATTCGCTTGACGCTGCTG”, the binding signal (log fluorescence intensity) is 12.5.
The figure for “CACCATTTTTACAGTAATGTAGCACGCGTAACTCCTGTCTTGATTCGCTTGACGCTGCTG” is 8.83.
The figure for “GTGTATAGGATCCCATCCAACACGCGTGTTAAAATGGTCTTGATTCGCTTGACGCTGCTG” is 8.9.
The figure for “CGGAAGTGACGTAAACGTCGGATATCCGGTTCTTCTGTCTTGATTCGCTTGACGCTGCTG” is 12.3; for “CGGAAGTGTCGTAAACGTCGGAGATCCGGTTCTTCTGTCTTGATTCGCTTGACGCTGCTG” it is 10.8; for “CGGAAGTGTCGTAAACGTCGGATATCCGGTTCTACTGTCTTGATTCGCTTGACGCTGCTG” it is 12.4.
With “GATGAATTTCTGCCCTTATTCGCACGTGCCATAACAGTCTTGATTCGCTTGACGCTGCTG”, the binding signal (log fluorescence intensity) is 8.9.
As to “GTGTATAGGATCCCATCCAACACACGTTTTAAAATGGTCTTGATTCGCTTGACGCTGCTG”, the binding signal (log fluorescence intensity) was 8.88.
As for “CTGGGACTTGACCCAACTCGGCCACGTGGGTCGTTTGTCTTGATTCGCTTGACGCTGCTG”, the binding signal (log fluorescence intensity) came to 8.96.
As for “TGTCGGGTAAGGGAATGTAGATGACGTGAATGAAAAGTCTTGATTCGCTTGACGCTGCTG”, the figure is 8.95.
The figure for “GGAAAAAGGCCCAGGGTAACACCGGAAGTGGCCTTAGTCTTGATTCGCTTGACGCTGCTG” is 10.9.

The record behind these values is article PMC6602471.
